The other results are listed elsewhere or left out. At the low end of the ranking the order means little. Measured with an extract: partners may take part in the binding.

The assay has as its target T1, HNF4alpha2 (COS-7 nuclear extract) (UniProt P41235).
T1 sequence: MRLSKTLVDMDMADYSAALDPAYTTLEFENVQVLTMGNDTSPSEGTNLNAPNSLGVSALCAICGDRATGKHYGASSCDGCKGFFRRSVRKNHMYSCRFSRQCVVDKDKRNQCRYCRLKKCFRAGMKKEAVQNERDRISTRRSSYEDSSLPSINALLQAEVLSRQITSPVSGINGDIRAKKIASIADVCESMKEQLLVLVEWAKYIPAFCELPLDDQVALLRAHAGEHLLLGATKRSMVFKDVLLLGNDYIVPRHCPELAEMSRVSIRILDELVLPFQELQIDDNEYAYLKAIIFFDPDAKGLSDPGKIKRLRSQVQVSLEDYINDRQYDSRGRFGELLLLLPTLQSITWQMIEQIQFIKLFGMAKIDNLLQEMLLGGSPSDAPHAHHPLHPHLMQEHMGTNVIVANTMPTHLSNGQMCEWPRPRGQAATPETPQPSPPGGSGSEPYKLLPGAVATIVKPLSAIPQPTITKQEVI
Put plainly: protein-binding microarray. Conditions: COS-7 nuclear extract on double-stranded Agilent 4x180k PBM; binding buffer, salt, pH and temperature not given; high values mean tight binding; double strand, one strand shown; sequences stand for … in …GCCTAGGGAGATTAGAGTATCGGTCGA
As to GGCACAGTAACCTGACCCCCAGTGGAATGT, the binding signal (log2 normalized intensity) was determined as 3.32.

Take CGCTGCGCCACAGCACCACCTGCTGGTCAG: the binding signal (log2 normalized intensity) was -1.09. As for GCCTCCTGCTCTGGGCTTTCTCTGCCTCCA, the figure is -1.08; as for CTATGCAAACAGCGCTTATCTGGAAACTAT, -1.02; as for TTGACCTCTGCTAGGTTTGGGTAAGACTTA, 2.52. The figure for AAAAATTGCCCCCGGGCACAGGGTTGAGTG is 2.2; for ACCTCCCCTTTGTTTAACTTACTATCTGAG it is 1.18. Consider GTTCTAGTAAGGCCTTCAAATGATTGGATG, for which the binding signal (log2 normalized intensity) is 0.0454.

Take GTCTACAGGTCAGACCTGTTTCAAAACTAC: the binding signal (log2 normalized intensity) was -1.03. ACACTATCAGCTACTTCGGGACAAGAGGAA: the binding signal (log2 normalized intensity) is -0.41. As for AGGCCAATTACTTACATGGGTTAGGAGGAT, the figure is 0.353; as for CTTGTCTTATCAGCAGGGTCTTTTTGACCT, 4.38; as for AAGGAAATGGACAACGGAAAGACAGAGGTG, -1.03. As for TCTCTGGCTGGTGGGCAAGTTATCTCGGGG, the figure is 0.776. The figure for TGAATCTAATGCCACCATTGATCTAACAGG is -1.09; for AGCCTCTTTATCTCTCTCTCTTTCTTCCCC it is 2.84; for AATCAACTGCCCTCTGCCTTTCAGGCAGGA it is -1.19. On to GCAATCTTCCAGTCCACAGTCCAGTGACTA, for which the binding signal (log2 normalized intensity) came out at 0.476. Consider AATGGTCATTCTCTGTTGCATGGTTGACAT, for which the binding signal (log2 normalized intensity) worked out at 1.89. As for AGAGAGACCGTCCCTGGGTACAACTTTATC, the figure is 0.802; as for CAGGGAGTGCCCTTCCACTTAGGCTTGCAA, -1.1. As to CAAAGTGCATTGGAGGCCAGATGCCAACTG, the binding signal (log2 normalized intensity) is -1.15.

For the sequence GCAAGGATCAGCCCCACACTCCTGGGCTGT, the binding signal (log2 normalized intensity) was -1.16. The figure for AGGAGCCTCCAATCAGGACAGACTGGTTGA is -1.15; for CAAGGGGAATGTGGATGCTGGAATGAGGGA it is -1.09; for CAGAAACAAAGGGGGAGGGAGATAGAGAAA it is -1.08. As for CCAGTGACTATCTGCTACTTAAGATAGAGG, the figure is -0.542. The figure for TAAGATCCAAAGGAGTGGTCCTGCTCAAAG is -1.03; for CATGATTGTGGAGGATGGGAAGTCCAAAGT it is 3.32; for TTGTATAGCATGAACTACACAGATTCTGCA it is -1.07. Regarding GTGGTGTAGAGGCCCTGCAGGGCCCCACAT, the binding signal (log2 normalized intensity) is -0.915. As for TTACACCTGTGTGTACTGGGCAGATAACAG, the figure is 0.585; as for AACTGACCTTGCAGGCCAGGGAGTGCAGCT, -0.889. As for ACTGAAAGAACACAGCGCAGCACACTGCAG, the figure is -1.11; as for ACATTTCCTTTTTGGCCAGCCCCGGGAATT, 1.65. As to AAATAGAGCAGCCTGGGGTAAAACCAAACT, the binding signal (log2 normalized intensity) was -1.12. The figure for GATGGGTCCACACAGCTGAATCCAAAGGTC is 5.87; for CTCATAAGAGACTTTGCCCTTTTTTTCTCT it is 3.96. As for AGACAGCCACTGTTTGACGACTGTCTGCCA, the figure is -1.15; as for GTGTGTGTGTGTGTGTGGTGTGTGTGTGTG, 3.59.

ACCAGGGCTAGACCCGTCAGCCCTGGTCCA: the binding signal (log2 normalized intensity) is -1.1. The figure for CTTCGATCACCTCAAGAAAGAGGTGGTTCT is -1.09; for CCTCAAAGAGCATGGCGCCAGGGAGTGATT it is -0.487.

Turning to TTTGTGGGCCAAAAGCAGCCATTAAGAAGC, the binding signal (log2 normalized intensity) is -0.486.

Turning to GCCCTTTGTATCTTTTAAGATACACTCTTT, the binding signal (log2 normalized intensity) stood at 2.22. As for GAGGCACCCATCCCTTTGCAATAAAAGATT, the figure is 0.089. Consider AATGACCTTTGTCCAGCTGTGCCGAGCCTG, for which the binding signal (log2 normalized intensity) was 4.02.

GCAGTGACCAAGGGTCAGTTTGAAATTAGG: the binding signal (log2 normalized intensity) amounted to 2.2.

Consider CCAAAGTCTATGTGTGCTTTCTTCATTAAC, for which the binding signal (log2 normalized intensity) turned out to be 1.5. AGGCCAATGAGGGAAGTTATTAACATCAAA: the binding signal (log2 normalized intensity) is -1.12. As for GGGAACCGGCAAGTCTGAAATCTACAGGAC, the figure is -1.02; as for GCTCCAGAGGAAGATATTATCTCTGTCTGT, -0.852. As for CTGAGCAGGAATGTTTCCTCTCCCAGCCCC, the figure is 3.24. The figure for GGGTTAAAAGCAAACCAAAAAGTTGGTTGG is -0.748; for GCTAGGTGGCGGGCTGGCTCAGGACAGGTG it is 0.0816; for GACCTCCACTTTGGAGGGGGAATTTATTTT it is -1.03.

With GTGGAAGGATCACCTGAGTCCAGAGGTCAA, the binding signal (log2 normalized intensity) was 4.66.

For the sequence TTCCTGTCACAAGAGATAAAGCTCTTTGTC, the binding signal (log2 normalized intensity) was -0.56. The figure for AGTCAGTTGCATGCAACCTTTGTCCTCATT is 5.64; for GGGATCCAGGTGCAAAGTACTTCCGATCTC it is 0.39; for AGCCAACCAGAGGCTGAAGTGAAGTTACAA it is -0.787. With TCTCCAGGGTCCTTGCCTTAAGAGCAGTCT, the binding signal (log2 normalized intensity) is -0.46. AATTCATCTCTAAGCTACTGAAAATGACCT: the binding signal (log2 normalized intensity) amounted to 3.39. As for TAAGATAAGGAGGTAGAGTCTAAGGCTAAA, the figure is -1.02. On to GCCTTGGGCAAGTTACTTAAGCCATCTGCT, for which the binding signal (log2 normalized intensity) is -1.15. The figure for TCTCCTGCATTCCTGTCCACCCTGAAAGAG is -0.0187. In the case of ACAGTAGACTTTTTTTTTCTTAATTGCCCT, the binding signal (log2 normalized intensity) worked out at 2.84. As to TGGGGGAGGTAGGTAAGGACCAGATCATTC, the binding signal (log2 normalized intensity) is -1.05. As for TAATGTGCCCAAAAGGACACAGGGTCTGTT, the figure is -1.13; as for CCCACCCCCACGCCCCCCAGCGGAAGTCCA, 6.97. Consider CTCTCAAAAATCTCACTCACCCTAAGCCCT, for which the binding signal (log2 normalized intensity) was determined as 2.79. For GCTTGAGCGAGACAGCGGGTGTTTCTGGGA, the binding signal (log2 normalized intensity) was 0.386. The figure for AAAAAGACGCGGTCTCAGTTAACGGGGACG is -1.11.

(Values after publication PMC10726135.)
